Data from paper PMC4336329 (PLoS ONE, 2015).
Out of some 310,000 compounds screened, about 2,200 (0.71%) showed an effect of 50% or more. The effect is printed as a negative number. The list shows a part of the results.

molecular target: human ether-à-go-go-related gene (hERG) potassium channel (human, UniProt Q12809); assay: primary screen, population patch clamp on CHO cells stably expressing hERG
Sequence (Q12809 whole entry, looked up): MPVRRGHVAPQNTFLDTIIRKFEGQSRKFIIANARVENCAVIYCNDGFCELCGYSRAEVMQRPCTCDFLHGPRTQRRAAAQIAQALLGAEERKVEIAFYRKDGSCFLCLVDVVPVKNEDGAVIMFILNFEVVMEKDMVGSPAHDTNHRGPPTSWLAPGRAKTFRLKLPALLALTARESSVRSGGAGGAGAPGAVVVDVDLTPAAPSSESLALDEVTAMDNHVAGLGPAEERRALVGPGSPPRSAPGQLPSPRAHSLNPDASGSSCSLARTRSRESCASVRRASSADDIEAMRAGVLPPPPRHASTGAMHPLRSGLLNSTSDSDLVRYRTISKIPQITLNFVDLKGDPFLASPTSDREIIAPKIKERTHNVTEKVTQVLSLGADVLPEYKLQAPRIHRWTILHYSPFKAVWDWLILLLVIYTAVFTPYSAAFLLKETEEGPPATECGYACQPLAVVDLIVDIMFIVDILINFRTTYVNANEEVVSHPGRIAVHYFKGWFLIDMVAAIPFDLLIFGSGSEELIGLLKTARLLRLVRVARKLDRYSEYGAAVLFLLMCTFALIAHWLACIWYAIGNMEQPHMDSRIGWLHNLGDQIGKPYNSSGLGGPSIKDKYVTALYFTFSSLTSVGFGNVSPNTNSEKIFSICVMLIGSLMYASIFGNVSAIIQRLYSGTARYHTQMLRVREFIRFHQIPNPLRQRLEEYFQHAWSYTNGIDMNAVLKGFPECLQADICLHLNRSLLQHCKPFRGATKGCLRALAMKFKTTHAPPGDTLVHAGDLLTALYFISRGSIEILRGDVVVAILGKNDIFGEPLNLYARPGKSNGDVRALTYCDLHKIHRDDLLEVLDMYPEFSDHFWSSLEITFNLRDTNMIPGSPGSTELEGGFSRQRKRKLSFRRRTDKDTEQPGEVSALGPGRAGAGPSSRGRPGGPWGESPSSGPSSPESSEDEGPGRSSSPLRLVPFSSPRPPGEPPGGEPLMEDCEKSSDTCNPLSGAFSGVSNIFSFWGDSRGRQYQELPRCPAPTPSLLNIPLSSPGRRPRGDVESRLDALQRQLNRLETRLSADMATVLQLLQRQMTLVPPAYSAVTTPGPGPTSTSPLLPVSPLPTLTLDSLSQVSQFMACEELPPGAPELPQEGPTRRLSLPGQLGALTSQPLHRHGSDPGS

Row | Structure (SMILES) | hERG current change (%, negative = inhibition) at 1uM [%]
1 | CCn1c(N)c(C(=O)NC2CCCCC2)sc1=S | 0.37
2 | CN(CC(=O)Nc1ccc(Br)cc1)Cc1ccccc1 | 17.2
3 | CC1CCC(NC(=O)c2ccc3c(c2)S(=O)(=O)c2ccccc2C3=O)CC1 (stereo not shown) | 1.11
4 | CN(C)c1oc(-c2ccccc2[N+](=O)[O-])nc1C#N | 5.09
5 | O=c1c2ccccc2ncn1-c1ccc(Br)cc1[N+](=O)[O-] | 12.1
6 | COc1ccc(NC(=O)COC(=O)c2ccc(N3CCCC3=O)cc2)cc1 | 15.4
7 | Cc1ccc(NC(=O)CC(C(=O)O)c2ccccc2)cc1 (stereo not shown) | 12.9
8 | Cc1cccc(NC(=O)c2ccc(C(=O)c3ccccc3)cc2)n1 | -0.878
9 | Cc1cc(C)c(C(N)=O)c(NCCc2ccccc2)n1 | 13.1
10 | CC(C)c1ccc(C2/C(=C(\O)c3ccc4c(c3)OCCO4)C(=O)C(=O)N2CCN2CCOCC2)cc1 (stereo not shown) | 11.5
11 | Cc1ccccc1OCc1nnc(SCCN2CCCC2)n1-c1ccccc1.Cl | -36.5
12 | CCC(C)(C)n1nnnc1C(c1ccccc1OC)N1CCN(C(=O)c2ccco2)CC1 (stereo not shown) | -2.71
13 | CC(=O)OC12CC3CC(C1)C(=NO)C(C3)C2 | 3.76
14 | COc1ccc(NS(=O)(=O)c2cc3c(cc2C)N(C(C)=O)CCO3)cc1 | 8.37
15 | COc1ccc(-c2nn3c(-c4ccc(F)cc4)nnc3s2)cc1 | 10.1
16 | CCN(CC)S(=O)(=O)c1cc(NC(=O)Cn2cnc3ccccc3c2=O)ccc1C | -20.7
17 | CCNc1nc(NCC)nc(N(C)N)n1 | 5.95
18 | COc1ccc(NC(=O)c2ccc3c(SCC(=O)O)c4c(nc3c2)CCCC4)cc1Cl | 12.4
19 | Cc1c(C(=O)Nc2cc(S(=O)(=O)N3CCOCC3)ccc2N2CCOCC2)oc2ccccc12 | 6
20 | Cc1cc(=O)oc2cc(OCC(=O)N3CCN(Cc4ccc5c(c4)OCO5)CC3)ccc12 | -0.606
21 | CCCc1nnc(NC(=O)c2cn(CC)c3cc(N4CCN(C)CC4)c(F)cc3c2=O)s1 | 17
22 | NC(=O)CC(NC(=O)c1ccccc1)c1ccc(N2CCN(c3ccccc3)CC2)c([N+](=O)[O-])c1 (stereo not shown) | 3.06
23 | COc1ccc(-n2nc3c(N)n[nH]c3cc2=O)cc1 | -0.0408

Row | Structure (SMILES) | hERG current change (%, negative = inhibition) at 1uM [%]
24 | O=C(Nc1nc2ccccc2[nH]1)C1CCC1 | 1.2
25 | O=C(NCc1ccccc1)c1ccc(CNc2c(N3CCCC3)c(=O)c2=O)cc1 | 14.7
26 | CC(=O)Nc1ccc(S(=O)(=O)Nc2nc3ccccc3s2)cc1 | 3.91
27 | O=C1[C@@H]2C(Cc3ccc(O)cc3)NC3(C(=O)Nc4ccc(F)cc43)[C@@H]2C(=O)N1c1ccccc1 (stereo partly shown) | 6.75
28 | COc1cccc(CN(C)C(=O)CC2C(=O)NCCN2C2Cc3ccccc3C2)c1 (stereo not shown) | 9.5
29 | O=C(Cn1nc(C(F)(F)F)c2c1CCCCC2)N1CCOCC1 | 6.74
30 | COc1ccc(-c2nc(SCC(=O)Nc3cc(C)on3)n[nH]2)cc1 | 12.1
31 | Cn1c(/C(C#N)=C(\O)c2ccccc2Cl)nc2ccccc21 | 15.2
32 | Cn1c(O)c(N=NC(=O)CNC(=O)c2ccccc2)c2cc(Br)ccc21 | 11.7
33 | CC(=O)c1cccc(NC(=O)C(OC(=O)c2cccc(S(=O)(=O)N(C)c3ccccc3)c2)c2ccccc2)c1 (stereo not shown) | 13.1
34 | CCCNCC1COc2ccccc2O1.Cl (stereo not shown) | 18.4
35 | CN(Cc1nc2ccccc2c(=O)[nH]1)C(=O)c1ccccc1OCc1ccc(Cl)cc1 | -4.36
36 | CCN1C(=O)/C(=C\N(C)C)c2ccccc21 | 16.6
37 | COc1ccc(NCc2ccc3c(c2)OCO3)cc1Cl | 6.84
38 | CCN(CC)c1ccc2cc(C(N)=O)c(=O)oc2c1 | 9.2
39 | Cc1cc(C)c(C(=O)N2CCCC(N3CCN(c4ccc(F)cc4)CC3)C2)o1 (stereo not shown) | -44.4
40 | O=S(=O)(Cc1c(F)cccc1Cl)c1ncn[nH]1 | 15.8
41 | C[C@@]12CCC3[C@@](CCC4[C@@]3(C)CCC[C@@]4(C)C(=O)NC3CCCCC3)(CC1=O)C2 (stereo partly shown) | 9.88
42 | COc1ccc(OCc2cc(C(=O)N3C[C@H]4CC[C@H]3C4)no2)c(Cl)c1 | 10.3
43 | COc1ccc(NC(=O)COC(=O)C2CC3C=CC2C3)cc1 (stereo not shown) | 10.5
44 | COc1ccc(OC)c(CN2CCN(c3ccccc3OC)CC2)c1 | -2.57
45 | CC1(C)N=C(c2ccccc2)C(=O)N1 | -12.4
46 | CCOC(=O)Cn1cnc2c(nnn2-c2ccc(OC)cc2)c1=O | 4.99

Row | Structure (SMILES) | hERG current change (%, negative = inhibition) at 1uM [%]
47 | COc1cc(OC)cc(C(=O)Nc2ccccc2C(=O)NCc2cccnc2)c1 | 9.6
48 | CCOc1ccc(OCCCCN(C)C)cc1 | 12.1
49 | c1ccc(C2C/C(=N\N3CCOCC3)c3ccccc3O2)cc1 (stereo not shown) | 9.4
50 | COc1ccc(CC(=O)NNC(=S)NC(=O)c2cccnc2)cc1 | 12.4
51 | CCOC(=O)Cn1c(=O)oc2cc(S(=O)(=O)N(C)c3ccc(OC)cc3)ccc21 | -1.67
52 | CCOC(=O)c1ccccc1NC(=S)N1CCC(C(N)=O)CC1 | 15.9
53 | C/C(=N\NC(=S)NCc1ccccc1)c1ccc(C(C)(C)C)cc1 | 13.8
54 | COc1ccc2c(Cl)c(C(=O)NN)sc2c1 | 12.5
55 | CN(C)c1cc(-c2cccc(C(F)(F)F)c2)oc(=O)c1Cl | 21.6
56 | COc1ccc(NC(=S)NCCN2CCOCC2)c(OC)c1 | 3.05
57 | Cc1cccc2sc(NC(=O)c3cccc(S(=O)(=O)N4CCc5ccccc54)c3)nc12 | 11.4
58 | COc1ccc(OC)c(NC(=S)NCC(c2cccnc2)N2CCOCC2)c1 (stereo not shown) | 10.3
59 | O=C(CNC(=O)c1cccc(F)c1)N/N=C/C=C/c1ccccc1 | 7.22
60 | c1ccc(-n2cc(CNCCc3cscn3)c(-c3ccc4c(c3)OCO4)n2)cc1 | -3.84
61 | COc1ccc(-c2noc(CCCC(=O)NC3CCCC3)n2)cc1OC | 13.8
62 | CCn1c(SC)nc2cc(S(=O)(=O)N3CCCCC3)ccc21 | -6.34
63 | COc1ccc(NC(=O)c2ccccc2)cc1 | 13
64 | O=C(c1ccccc1)C1CCN(C(=O)C2CCC(=O)N(Cc3ccccc3F)C2)CC1 (stereo not shown) | -8.89
65 | O=C(CSc1ncnc2nc[nH]c12)NCCc1ccccc1 | 5.38
66 | CCOC(=O)N1CCC(NS(=O)(=O)c2cc(Br)cnc2N)CC1 | -1.22
67 | COc1ccc(CNC(=O)[C@@H](C)NC(=O)[C@@H]2Cc3ccccc3CN2)cc1 | -0.521
68 | CCOC(=O)C1(Cc2cccc(Cl)c2)CCCN(C(=O)CCSC)C1 (stereo not shown) | 7.77
69 | CC(NC(=O)c1nn(C)c(=O)c2ccccc12)c1ccc(F)cc1 (stereo not shown) | 11.8

Row | Structure (SMILES) | hERG current change (%, negative = inhibition) at 1uM [%]
70 | Cc1ccccc1CNC(=O)c1ccccc1 | 13.4
71 | CC(=O)N1CCCN(Cc2cn(-c3ccc(C)cc3)nc2-c2cccc(C)c2)CC1 | 4.46
72 | COc1ccc(N2CC(C(=O)Nc3cc(C)ccn3)CC2=O)cc1 (stereo not shown) | 10.9
73 | CCc1ccc(CN2CCN(Cc3cc(Br)ccc3O)CC2)cc1 | 15.3
74 | CCC(=O)NC(Cc1ccccc1)c1nc2ccccc2[nH]1 (stereo not shown) | 12
75 | Cc1ccc(CNS(=O)(=O)N(C)C)cc1 | 16
76 | O=S1(=O)CC(O)C(N(CCO)C(=S)Nc2ccccc2)C1 (stereo not shown) | 12.3
77 | C/C=C(\C)CN1CCN(c2cc(C)ccc2C)CC1 | 7.21
78 | Oc1cccc(CCC2CCCCN2Cc2cn[nH]c2-c2ccc3c(c2)OCO3)c1 (stereo not shown) | -46.1
79 | COc1ccc(OC)c(NC(=O)CC2SC(=NCc3ccccc3)NC2=O)c1 (stereo not shown) | 1.29
80 | Cc1cc(NC(=O)C2C3C(=O)N(CC4CCCO4)C(C(=O)NCc4ccccc4)C34C=CC2(C)O4)no1 (stereo not shown) | 12.8
81 | Cc1ccc(C(=O)NCCCNC(=O)COc2ccc(Cl)c(C)c2)cn1 | -11.2
82 | O=C(c1ccc(F)cc1)C1CCN(C(=S)NCC2CCCO2)CC1 (stereo not shown) | 7.51
83 | O=C(NC(=S)NC1CCS(=O)(=O)C1)c1ccccc1F (stereo not shown) | 15.2
84 | Cc1cc(C)cc(NC(=O)Cc2ccc(-n3cccc3)cc2)c1 | 20.4
85 | CC(=O)Nc1ccc(C2NC(=O)CCC2[N+](=O)[O-])cc1 (stereo not shown) | 7.01
86 | Cc1cc(C(=O)CN2C(=O)NC(C)(c3ccccc3)C2=O)c(C)n1CC1CCCO1 (stereo not shown) | -1.43
87 | COc1ccccc1C(=O)NCCC(=O)Nc1ncccc1O | 16.8
88 | O=C(CCc1ccccc1)N1CCCC1 | 11.3
89 | O=C(O)c1ccc(-c2ccc(OS(=O)(=O)c3ccccc3F)cc2)cc1 | 9.21
90 | CCc1ccccc1NC(=S)NCc1ccc2c(c1)OCO2 | -14
91 | CCN1C(=O)C(CC(=O)Nc2ccc(F)cc2)N(Cc2ccc3c(c2)OCO3)C1=S (stereo not shown) | 7.24
